Experimental data: the supplement of paper PMC12217912
This is one part of the list. The full chains were built here from the parent and the listed change. Values near 0.05 are background.

B1: TEV protease; numbered along this chain (parent)
chain: MGESLFKGPRDYNPISSSICHLTNESDGHTTSLYGIGFGPFIITNKHLFRRNNGTLVVQSLHGVFKVKDTTTLQQHLVDGRDMIIIRMPKDFPPFPQKLKFREPQREERICLVTTNFQTKSMSSMVSDTSCTFPSGDGIFWKHWIQTKDGQCGSPLVSTRDGFIVGIHSASNFTNTNNYFTSVPKNFMELLTNQEAQQWVSGWRLNADSVLWGGHKVFMVKPEEPFQPVKEATQL

Variants of: B1
Test: raw area under fraction-flipped curve 0-4 h after induction (AUC4h, not background-subtracted), DNA-recorder readout of cleavage of the substrate (dimensionless); higher = more cleavage of the substrate by the protease variant
Conditions: temperature: 34 °C; time window: 0-4 h after rhamnose induction
Description: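 In vivo DNA recorder in E. coli TOP10(DE3) ΔrhaA at 34 °C. Each TEVp single-site mutant (parent TEVp 0) is paired with a single-site variant of the 7-mer TEVs (canonical ENLYFQ|S). The substrate sits between flexible linkers in a Bxb1-sfGFP-TEVs-SsrA fusion, so cleavage stabilises Bxb1 and speeds flipping of a recombination array, read by NGS. The value is the raw area under the fraction-flipped curve over 0-4 h after rhamnose induction (AUC4h), with ≥20 reads per time point. It is not background-subtracted; inactive controls average about 0.047.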
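Also: Bxb1 expression induced with 0.2% (w/v) L-rhamnose at OD600 near 0.5, cultures sampled hourly, flipped fraction per protease–substrate barcode pair counted by paired-end Illumina sequencing.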

## MGESLFKGPRDYNPISSSICHLTNESDGHTTSLYGIGFGPFIITNKHLFRRNNGTLVVQSLHGVFKVKDTTTLQQHLVDGRDMIIIRMPKDFPPFPQKLKFREPQREERICLVTTNFQTKSMSSMVSDTSCTFPSGDGIFWDHWIQTKDGQCGSPLVSTRDGFIVGIHSASNFTNTNNYFTSVPKNFMELLTNQEAQQWVSGWRLNADSVLWGGHKVFMVKPEEPFQPVKEATQL [K142D]
  area with substrate ENLYFQA: 0.0877
  area with substrate ENLYFQC: 0.0773
  area with substrate ENLYFQD: 0.0573
  area with substrate ENLYFQG: 0.0815
  area with substrate ENLYFQH: 0.0662
  area with substrate ENLYFQI: 0.0629
  area with substrate ENLYFQK: 0.0535
  area with substrate ENLYFQL: 0.0653
  area with substrate ENLYFQM: 0.062
  area with substrate ENLYFQR: 0.0596
  area with substrate ENLYFQS: 0.074
  area with substrate ENLYFQT: 0.0698
  area with substrate ENLYFQV: 0.0503
  area with substrate ENLYFQW: 0.0607
  area with substrate ENLYFQY: 0.0715

## MGESLFKGPRDYNPISSSICHLTNESDGHTTSLYGIGFGPFIITNKHLFRRNNGTLVVQSLHGVFKVKDTTTLQQHLVDGRDMIIIRMPKDFPPFPQKLKFREPQREERICLVTTNFQTKSMSSMVSDTSCTFPSGDGIFWRHWIQTKDGQCGSPLVSTRDGFIVGIHSASNFTNTNNYFTSVPKNFMELLTNQEAQQWVSGWRLNADSVLWGGHKVFMVKPEEPFQPVKEATQL [K142R]
  area with substrate ENLYFQA: 0.0937
  area with substrate ENLYFQC: 0.096
  area with substrate ENLYFQF: 0.0699
  area with substrate ENLYFQH: 0.0675
  area with substrate ENLYFQK: 0.0623
  area with substrate ENLYFQL: 0.0579
  area with substrate ENLYFQM: 0.0761
  area with substrate ENLYFQN: 0.0748
  area with substrate ENLYFQP: 0.0531
  area with substrate ENLYFQQ: 0.062
  area with substrate ENLYFQR: 0.0484
  area with substrate ENLYFQS: 0.0832
  area with substrate ENLYFQT: 0.0569
  area with substrate ENLYFQV: 0.0526
  area with substrate ENLYFQW: 0.0614
  area with substrate ENLYFQY: 0.0752

## MGESLFKGPRDYNPISSSICHLTNESDGHTTSLYGIGFGPFIITNKHLFRRNNGTLVVQSLHGVFKVKDTTTLQQHLVDGRDMIIIRMPKDFPPFPQKLKFREPQREERICLVTTNFQTKSMSSMVSDTSCTFPSGDGIFWPHWIQTKDGQCGSPLVSTRDGFIVGIHSASNFTNTNNYFTSVPKNFMELLTNQEAQQWVSGWRLNADSVLWGGHKVFMVKPEEPFQPVKEATQL [K142P]
  area with substrate ENLYFQA: 0.0679
  area with substrate ENLYFQC: 0.0617
  area with substrate ENLYFQD: 0.0533
  area with substrate ENLYFQE: 0.0549
  area with substrate ENLYFQG: 0.064
  area with substrate ENLYFQH: 0.0494
  area with substrate ENLYFQK: 0.0864
  area with substrate ENLYFQL: 0.0572
  area with substrate ENLYFQN: 0.061
  area with substrate ENLYFQP: 0.0357
  area with substrate ENLYFQR: 0.0618
  area with substrate ENLYFQS: 0.0687
  area with substrate ENLYFQT: 0.0527
  area with substrate ENLYFQV: 0.0587
  area with substrate ENLYFQW: 0.0529
  area with substrate ENLYFQY: 0.0619

## MGESLFKGPRDYNPISSSICHLTNESDGHTTSLYGIGFGPFIITNKHLFRRNNGTLVVQSLHGVFKVKDTTTLQQHLVDGRDMIIIRMPKDFPPFPQKLKFREPQREERICLVTTNFQTKSMSTMVSDTSCTFPSGDGIFWKHWIQTKDGQCGSPLVSTRDGFIVGIHSASNFTNTNNYFTSVPKNFMELLTNQEAQQWVSGWRLNADSVLWGGHKVFMVKPEEPFQPVKEATQL [S124T]
  area with substrate ENLYFQA: 0.0816
  area with substrate ENLYFQC: 0.109
  area with substrate ENLYFQF: 0.088
  area with substrate ENLYFQG: 0.115
  area with substrate ENLYFQI: 0.065
  area with substrate ENLYFQK: 0.0634
  area with substrate ENLYFQL: 0.0584
  area with substrate ENLYFQM: 0.0822
  area with substrate ENLYFQN: 0.0747
  area with substrate ENLYFQQ: 0.0402
  area with substrate ENLYFQR: 0.0595
  area with substrate ENLYFQS: 0.0978
  area with substrate ENLYFQT: 0.0629
  area with substrate ENLYFQV: 0.0669
  area with substrate ENLYFQW: 0.0618

## MGESLFKGPRDYNPISSSICHLTNESDGHTTSLYGIGFGPFIITNKHLFRRNNGTLVVQSLHGVFKVKDTTTLQQHLVDGRDMIIIRMPKDFPPFPQKLKFREPQREERICLVTTNFQTKSMSSMVSDTSCTFPPGDGIFWKHWIQTKDGQCGSPLVSTRDGFIVGIHSASNFTNTNNYFTSVPKNFMELLTNQEAQQWVSGWRLNADSVLWGGHKVFMVKPEEPFQPVKEATQL [S135P]
  area with substrate ENLYFQA: 0.061
  area with substrate ENLYFQC: 0.0873
  area with substrate ENLYFQD: 0.0511
  area with substrate ENLYFQE: 0.0711
  area with substrate ENLYFQG: 0.0772
  area with substrate ENLYFQH: 0.0567
  area with substrate ENLYFQI: 0.0461
  area with substrate ENLYFQK: 0.0663
  area with substrate ENLYFQL: 0.0669
  area with substrate ENLYFQM: 0.0534
  area with substrate ENLYFQN: 0.058
  area with substrate ENLYFQP: 0.0583
  area with substrate ENLYFQR: 0.0595
  area with substrate ENLYFQS: 0.0748
  area with substrate ENLYFQV: 0.0759

## MGESLFKGPRDYNPISSSICHLTNESDGHTTSLYGIGFGPFIITNKHLFRRNNGTLVVQSLHGVFKVKDTTTLQQHLVDGRDMIIIRMPKDFPPFPQKLKFREPQREERICLVTTNFQTKSMSSMVSDTSCTFPSGYGIFWKHWIQTKDGQCGSPLVSTRDGFIVGIHSASNFTNTNNYFTSVPKNFMELLTNQEAQQWVSGWRLNADSVLWGGHKVFMVKPEEPFQPVKEATQL [D137Y]
  area with substrate ENLYFQA: 0.108
  area with substrate ENLYFQC: 0.106
  area with substrate ENLYFQD: 0.072
  area with substrate ENLYFQI: 0.05
  area with substrate ENLYFQK: 0.0523
  area with substrate ENLYFQN: 0.0873
  area with substrate ENLYFQR: 0.0617
  area with substrate ENLYFQS: 0.0921
  area with substrate ENLYFQT: 0.0599
  area with substrate ENLYFQV: 0.0587
  area with substrate ENLYFQW: 0.0687

## MGESLFKGPRDYNPISSSICHLTNESDGHTTSLYGIGFGPFIITNKHLFRRNNGTLVVQSLHGVFKVKDTTTLQQHLVDGRDMIIIRMPKDFPPFPQKLKFREPQREERICLVTTNFQTKSMSSEVSDTSCTFPSGDGIFWKHWIQTKDGQCGSPLVSTRDGFIVGIHSASNFTNTNNYFTSVPKNFMELLTNQEAQQWVSGWRLNADSVLWGGHKVFMVKPEEPFQPVKEATQL [M125E]
  area with substrate ENLYFQA: 0.0989
  area with substrate ENLYFQC: 0.122
  area with substrate ENLYFQD: 0.0916
  area with substrate ENLYFQF: 0.0698
  area with substrate ENLYFQH: 0.0866
  area with substrate ENLYFQI: 0.075
  area with substrate ENLYFQL: 0.0624
  area with substrate ENLYFQN: 0.0564
  area with substrate ENLYFQP: 0.0633
  area with substrate ENLYFQQ: 0.0468
  area with substrate ENLYFQR: 0.0679
  area with substrate ENLYFQS: 0.0945
  area with substrate ENLYFQT: 0.0554
  area with substrate ENLYFQV: 0.059
  area with substrate ENLYFQW: 0.0606

## MGESLFKGPRDYNPISSSICHLTNESDGHTTSLYGIGFGPFIITNKHLFRRNNGTLVVQSLHGVFKVKDTTTLQQHLVDGRDMIIIRMPKDFPPFPQKLKFREPQREERICLVTTNFQTKSMSSMVSDTSCTFPSGDVIFWKHWIQTKDGQCGSPLVSTRDGFIVGIHSASNFTNTNNYFTSVPKNFMELLTNQEAQQWVSGWRLNADSVLWGGHKVFMVKPEEPFQPVKEATQL [G138V]
  area with substrate ENLYFQA: 0.0784
  area with substrate ENLYFQC: 0.0774
  area with substrate ENLYFQD: 0.0386
  area with substrate ENLYFQF: 0.0658
  area with substrate ENLYFQK: 0.0473
  area with substrate ENLYFQL: 0.0678
  area with substrate ENLYFQM: 0.065
  area with substrate ENLYFQN: 0.0635
  area with substrate ENLYFQP: 0.0397
  area with substrate ENLYFQS: 0.084
  area with substrate ENLYFQT: 0.0648
  area with substrate ENLYFQV: 0.0488

## MGESLFKGPRDYNPISSSICHLTNESDGHTTSLYGIGFGPFIITNKHLFRRNNGTLVVQSLHGVFKVKDTTTLQQHLVDGRDMIIIRMPKDFPPFPQKLKFREPQREERICLVTTNFQTKSMSSMVSDTSCTFPSGDGIFWKHWIQGKDGQCGSPLVSTRDGFIVGIHSASNFTNTNNYFTSVPKNFMELLTNQEAQQWVSGWRLNADSVLWGGHKVFMVKPEEPFQPVKEATQL [T147G]
  area with substrate ENLYFQA: 0.0783
  area with substrate ENLYFQC: 0.077
  area with substrate ENLYFQI: 0.0573
  area with substrate ENLYFQQ: 0.0448
  area with substrate ENLYFQS: 0.0674
  area with substrate ENLYFQT: 0.0552
  area with substrate ENLYFQV: 0.0563
  area with substrate ENLYFQY: 0.0716
